Results published in PMC4336329 (PLoS ONE, 2015).
Screen size: about 310,000 compounds; about 2,200 (0.71%) showed an effect of 50% or more. Effects have a minus sign here. The list shows a part of the results.

molecular target: human ether-à-go-go-related gene (hERG) potassium channel (human, UniProt Q12809); experiment: primary screen, population patch clamp on CHO cells stably expressing hERG
Sequence (Q12809 whole entry, looked up): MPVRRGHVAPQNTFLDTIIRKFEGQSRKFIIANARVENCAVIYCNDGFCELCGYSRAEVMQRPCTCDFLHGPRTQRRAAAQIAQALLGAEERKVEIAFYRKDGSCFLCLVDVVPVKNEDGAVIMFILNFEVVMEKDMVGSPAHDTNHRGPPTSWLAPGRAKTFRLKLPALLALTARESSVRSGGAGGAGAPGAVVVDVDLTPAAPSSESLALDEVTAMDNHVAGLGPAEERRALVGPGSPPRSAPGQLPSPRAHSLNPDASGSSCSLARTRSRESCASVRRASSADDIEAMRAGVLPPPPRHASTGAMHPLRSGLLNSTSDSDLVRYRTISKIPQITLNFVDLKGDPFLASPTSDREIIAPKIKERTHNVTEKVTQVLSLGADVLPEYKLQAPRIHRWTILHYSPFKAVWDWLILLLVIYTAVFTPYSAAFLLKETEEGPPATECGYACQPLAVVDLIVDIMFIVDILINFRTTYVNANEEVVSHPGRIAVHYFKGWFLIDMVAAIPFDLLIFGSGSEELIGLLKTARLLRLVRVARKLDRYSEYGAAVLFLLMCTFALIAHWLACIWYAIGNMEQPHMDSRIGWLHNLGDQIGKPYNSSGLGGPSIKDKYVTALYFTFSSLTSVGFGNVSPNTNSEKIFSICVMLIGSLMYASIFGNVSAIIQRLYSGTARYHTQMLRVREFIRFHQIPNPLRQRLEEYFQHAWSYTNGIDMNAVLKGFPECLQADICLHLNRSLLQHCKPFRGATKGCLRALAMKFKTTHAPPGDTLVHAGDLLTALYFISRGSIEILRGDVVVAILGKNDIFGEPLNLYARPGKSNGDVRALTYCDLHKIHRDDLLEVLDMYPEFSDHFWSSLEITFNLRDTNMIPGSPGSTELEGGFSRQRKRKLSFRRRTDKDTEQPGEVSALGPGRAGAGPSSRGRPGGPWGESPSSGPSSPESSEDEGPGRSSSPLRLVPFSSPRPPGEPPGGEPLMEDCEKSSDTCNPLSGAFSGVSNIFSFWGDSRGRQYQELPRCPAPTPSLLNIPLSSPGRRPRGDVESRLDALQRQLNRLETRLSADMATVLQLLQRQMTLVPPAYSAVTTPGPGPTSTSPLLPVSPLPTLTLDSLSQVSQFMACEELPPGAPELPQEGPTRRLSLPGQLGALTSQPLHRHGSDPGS

SMILES	hERG current change (%, negative = inhibition) at 1uM [%]
Cc1ccc(CSc2nc3nc(C)cc(C)c3c(=O)[nH]2)cc1	-4.04
Cc1cc(-c2nnc(SCC(=O)Nc3ccc(F)c(F)c3)n2N)n[nH]1	-9.36
CCCCn1c(N)c(N(CC(C)C)C(=O)CN(C)S(=O)(=O)c2ccc(F)cc2)c(=O)[nH]c1=O	-9.37
O=C(O)C1CCN(C(=O)c2ccco2)CC1	7.07
CC1(C)CCC[C@]2(C)C(CS(=O)c3ccccc3)=C(C=O)CC[C@@H]12 (stereo partly shown)	6.12
Cc1ccn2c(=O)c(C(=O)NCCCN3CCCC3=O)c(O)nc2c1	40.7
COc1ccc(NC(=O)CSCC(=O)Oc2c(OC)cccc2OC)cc1	10.8
COC(=O)C(C)n1cnc2c(nnn2-c2cccc(OC)c2)c1=O (stereo not shown)	11.8
O=C(NCc1ccc(Cl)cc1)c1ccc(CSc2nc3ccncc3[nH]2)cc1	10.1
O=c1c2ccccc2ncn1-c1ccc([N+](=O)[O-])cc1Cl	13.9
COc1cc(CNCCc2ccccc2)cc(Cl)c1OCc1ccccc1.Cl	12.2
Cc1ccc(C(=O)C(OC(=O)CN2C(=O)c3ccccc3C2=O)c2ccccc2)cc1C (stereo not shown)	17.9
CSc1oc(-c2ccco2)nc1S(=O)(=O)c1ccccc1	8.42
CCN(CC)CCNS(=O)(=O)c1ccc2[nH]cc(C(=O)O)c(=O)c2c1	10.9
OCCNC(=S)NCc1ccccc1	10.4
CC1CCCN(C(=O)Cc2ccc(F)cc2)C1 (stereo not shown)	13.9
Cc1cc(SCC(=O)Nc2cccnc2Cl)nc2ccccc12	12.8
Cc1nc2ccccc2c(=O)n1-c1ccc(F)cc1F	5.91
COc1ccccc1OC[C@H](O)CO	20
C=CCOc1ccc(CNc2ccc(NC(=O)CCC)cc2)cc1OCC	11.8
CN1CCN(C2=C(Cl)C(=O)N(Cc3ccccc3)C2=O)CC1	-4.55
Cc1ccc(NCc2nc3ccccc3n2C)cc1	2.32
COc1ccc(OC)c(S(=O)(=O)Nc2ccccc2O)c1	9.14

SMILES	hERG current change (%, negative = inhibition) at 1uM [%]
N#C/C(=C\c1ccncc1)c1ccc(NC(N)=O)cc1	14.7
Cc1cc(C(=O)CSc2nnc(N)s2)c(C)n1-c1c(C)n(C)n(-c2ccccc2)c1=O	9.5
COc1cc(C2NC(=S)NC3=C2C(=O)CCC3)ccc1O (stereo not shown)	17
c1cncc(-c2ccc3[nH]ccc3c2)c1	7.75
CC(C)COC(=O)c1ccccc1OC(=O)c1ccncc1	6.72
O=C(Nc1ccccc1C(F)(F)F)c1cnccn1	15.4
Cc1cccc(-n2cnc(C(=O)NNC(=S)Nc3ccccc3)c2)n1	16.8
COc1ccc(C2CC(c3ccccc3)=NN2C(=O)COC(=O)c2nc3nccc(C)n3n2)cc1 (stereo not shown)	27.9
Cc1ccc(CN2CCN(C(=O)c3ccncc3)CC2)cc1.O=C(O)C(=O)O	8.52
CCOc1ccccc1/C=C(\C#N)C(=O)Nc1cccc(C(=O)O)c1	-3.93
CCOc1ccc(N(CC(=O)NCc2cccs2)S(=O)(=O)c2c(C)noc2C)cc1	13.1
CC(C)Cn1c(=S)[nH]c2cc(Cl)ccc21	6.32
N/C(=N\OC(=O)CCCOc1ccc(Cl)cc1Cl)c1ccncc1	14.3
N=C1C(c2ccccc2)=C(O)CN1c1ccccc1	4.72
O=C(O)/C=C/C(=O)Nc1ccc(OCc2ccccc2)cc1	11.3
Cc1onc(-c2ccccc2Cl)c1C(=O)Nc1ccc(-c2cn3cccnc3n2)cc1	16
COc1ccc(CNC(=O)CSc2nc(-c3ccccc3)cc(-c3cccs3)c2C#N)cc1	6.45
CCOC(=O)C1(CCCc2ccccc2)CCN(C(=O)CN2C(=O)CSC2=O)CC1	7.4
CCCN1CCN(CCCNC(=O)C2CCCN(c3nnc(-n4cccc4)s3)C2)CC1 (stereo not shown)	4.31
Cc1ccc(C(CNS(=O)(=O)c2ccccc2)N2CCN(C)CC2)cc1 (stereo not shown)	-2.24
CN(C)c1nc2sc3c(c2c(=O)n1C)CC(C)(C)OC3	13.6
O=C(CN1CCN(Cc2ccccc2)CC1)N/N=C/C=C/c1ccco1	-7.18
O=C(Cn1cnc2ccccc21)N/N=C/C(Br)=C/c1ccccc1	10.7

SMILES	hERG current change (%, negative = inhibition) at 1uM [%]
N/C(=N\OC(=O)c1ccc2ccccc2c1)c1ccncc1	-7.21
Cn1c(=O)c2c(nc(CN3CCc4ccccc4C3)n2Cc2ccccc2F)n(C)c1=O	1.59
Cc1nc2cc(C(=O)NCCN3CCOCC3)ccc2n1-c1ccc(F)cc1F	3.34
COC(=O)c1cc2c(C)cc3ccc(C)cn3c-2c1C(=O)OC	12
Cc1[nH]c2ccccc2c1C(c1ccccn1)c1c(C)[nH]c2ccccc12	9.39
O=C(N/N=C/c1ccc(Cl)cc1)c1cc(-c2cccnc2)nc2ccccc12	1.83
C=CCOc1cccc(CNn2nnnc2N)c1	14.6
CC(=O)CC1OC(=O)C(Br)=C1NCc1ccccc1 (stereo not shown)	-5.1
COc1ccccc1C(=O)N/N=C(\C)c1ccc(NC(=O)Cc2ccccc2)cc1	14.8
Cc1ccc(NC(=O)C2CCCO2)c(Br)c1 (stereo not shown)	11.3
COc1ccc(NC(=O)C(=O)NNC(=O)COc2ccc(OC)cc2)cc1	23.2
Cc1ccc2nc3c(cc(C(=O)NCCc4ccccc4)c(=N)n3CCCN3CCOCC3)c(=O)n2c1	-77.5
CSCCC(NC(=O)COc1ccccc1)C(=O)N1CCCCC1 (stereo not shown)	-3.54
COc1ccc(COc2cc(-c3cccc(OC)c3)nc3ccc(NC(=O)c4ccccc4)cc23)cc1	16.8
CNC(=O)NCCN1CCCC1=O	4.47
CC1Cc2ccccc2N1C(=O)CN1CCC(C(N)=O)CC1 (stereo not shown)	0.0723
COC(=O)C1C(c2ccccc2)C(C(=O)O)C1c1ccccc1 (stereo not shown)	22.2
COc1ccccc1C(=O)NCCC(=O)NNC(=O)C1COc2ccccc2O1 (stereo not shown)	4.7
COc1ccc(OC)c(CCNC(=O)Cn2nc(C)c3c(C)n(-c4ccccc4)nc3c2=O)c1	6.87
Brc1ccc(N=C(c2ccccc2)c2ccncc2)cc1	13.5
O=[N+]([O-])c1cc(/C=N/N2CCCCC2)ccc1Cl	7.23
CC(=O)N1CCN(CC(=O)Nc2c(Cl)cccc2Cl)CC1.O=C(O)C(=O)O	15.1
COc1cc(S(=O)(=O)N2CCN(c3ccccn3)CC2)ccc1Br	8.5

SMILES	hERG current change (%, negative = inhibition) at 1uM [%]
C=CCOc1ccc(/C=C(\C#N)C(=O)Nc2ccccn2)cc1	12.5
O=C(CCN1C(=O)CSc2ccccc21)Nc1ccc(OC(F)(F)F)cc1	5.18
O=C(NCc1ccco1)c1cnc2sccn2c1=O	11.1
CCn1nc(C)c(CN2CCCC(CNS(=O)(=O)c3ccc(OC)cc3)C2)c1C (stereo not shown)	-7.5
Cc1ccccc1C(=O)Nc1ccccc1C(=O)N/N=C\c1ccco1	9.4
Cc1ccc(OCC(=O)Nc2ccc(S(=O)(=O)Nc3cc(C)nc(C)n3)cc2)c(C)c1	-1.77
CC(=O)c1ccc(N(C(=O)CNC(=O)c2ccco2)C(C(=O)NC2CCCC2)c2cccnc2)cc1 (stereo not shown)	5.13
CSCCC(NC(=O)c1ccccc1)C(=O)OCC(=O)c1ccc[nH]1 (stereo not shown)	2.6
C/C(=C\C(=O)c1ccc(C)cc1)NCc1ccc(F)cc1	6.77
NCCc1cnc[nH]1	4.13
COc1cc(/C=C/C(=O)NCCn2c(C)cc3ccccc32)cc(OC)c1OC	14.8
COc1ccc(NC(=O)C2CCC(CNC(=O)[C@@H]3Cc4ccccc4CN3)CC2)cc1 (stereo partly shown)	18.9
CC(C)Sc1nc2sc3c(c2c2nnc(SCC(=O)NCc4ccco4)n12)CCCC3	-2.96
CCc1cc(C(=O)NC2CCCc3c2cnn3-c2cccc(C)c2C)n(C)n1 (stereo not shown)	10.9
Cn1cc(CNC(=O)C2CCC(=O)N(Cc3cccc(C(F)(F)F)c3)C2)cn1 (stereo not shown)	1
CC(C)c1ccc(NC2CCCN(C(=O)c3cnsn3)C2)cc1 (stereo not shown)	13.4
NC(=O)Cc1ccc(C(=O)c2ccccc2F)s1	13.8
Clc1ccc(SCCn2cncn2)cc1	0.689
NC(=O)c1ccsc1NC(=O)COC(=O)Cc1n[nH]c(=O)c2ccccc12	20
Fc1cccc(-c2c(-c3ccccc3)ncc3cc(F)ccc23)c1	15.8
CCn1cc(CN2CCN(C)C(CCO)C2)c2ccccc21 (stereo not shown)	5.94
Cc1cc(CNC(=O)C(C)Cc2ccccc2)nn1C (stereo not shown)	4.63
